{
  "source": "the supplement of paper PMC9446081",
  "note": "The campaign covered roughly 39,000 compounds. About 220 (0.56%) showed activity. The list shows a part of the results.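 Note: static incubation at 37 °C against the wild-type strain, values averaged over two biological replicates.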",
  "data": [
    {"system": "Escherichia coli K-12 BW25113", "experiment": "relative growth (OD600 normalised to plate interquartile mean) (fraction); higher = less growth inhibition, active = 0.2 or less", "conditions": "50 µM; LB; incubation time: overnight (16-24 h)", "values": [
      {"smiles": "C[C@H]1CCCCO[C@H](CN(C)C(=O)Nc2ccc(C(F)(F)F)cc2)[C@@H](C)CN([C@@H](C)CO)C(=O)c2cc(NC(=O)Nc3ccccc3)ccc2O1", "relative growth": "inactive: 1.01"},
      {"smiles": "COc1ccc(N(C(=O)CCl)[C@@H](C(=O)NCCc2ccccc2)c2ccc(Cl)s2)cc1Cl", "relative growth": "inactive: 1"},
      {"smiles": "COc1cccc(C(=O)Nc2ccc3c(c2)C(=O)N(C)[C@@H]2CC[C@H](CC(=O)NCCCN4CCOCC4)O[C@@H]2CO3)c1", "relative growth": "inactive: 1.04"},
      {"smiles": "COCC#Cc1ccc2c(c1)O[C@@H](CN(C)C(=O)C1CCCCC1)[C@H](C)CN([C@@H](C)CO)S2(=O)=O", "relative growth": "inactive: 1.04"},
      {"smiles": "CSC1=NN(C)c2cnn(C)c(=O)c2S1", "relative growth": "inactive: 1.02"},
      {"smiles": "CCS(=O)(=O)N1C[C@]2(CCN(CC2)S(=O)(=O)c2cn(cn2)C)c2c([nH]c3cc(ccc23)OC)[C@H]1CO", "relative growth": "inactive: 0.988"},
      {"smiles": "CCCNC(=O)N[C@H]1CC[C@@H](CC(=O)N2CCN(C)CC2)O[C@H]1CO", "relative growth": "inactive: 0.986"},
      {"smiles": "C[C@H]1CCCCO[C@H](CN(C)S(=O)(=O)c2ccccc2)[C@@H](C)CN([C@@H](C)CO)C(=O)c2cc(NS(=O)(=O)c3ccc(Cl)cc3)ccc2O1", "relative growth": "inactive: 1.02"},
      {"smiles": "CC(C)CC#Cc1ccc2c(c1)O[C@@H](CN(C)C(=O)c1ccccn1)[C@@H](C)CN([C@H](C)CO)S2(=O)=O", "relative growth": "inactive: 1"},
      {"smiles": "O=c1[nH]cccc1F", "relative growth": "inactive: 0.964"},
      {"smiles": "COc1ccc(NC(=O)N(C)C[C@H]2Oc3cc(C#CCN(C)C)ccc3S(=O)(=O)N([C@@H](C)CO)C[C@H]2C)cc1", "relative growth": "inactive: 0.997"},
      {"smiles": "Cc1ccc(S(=O)(=O)Nc2ccc3c(c2)C(=O)N([C@@H](C)CO)C[C@H](C)[C@@H](CN(C)CC2CC2)O3)cc1", "relative growth": "inactive: 1.03"},
      {"smiles": "COC(=O)[C@H]1[C@H](CO)[C@H]2Cn3c(ccc(-c4cncnc4)c3=O)[C@H]2N1C(=O)C1CCC1", "relative growth": "inactive: 0.99"},
      {"smiles": "Cc1cc(C(=O)Nc2cccc3c2O[C@@H](CN(C)S(=O)(=O)c2cn(C)cn2)[C@H](C)CN([C@@H](C)CO)C3=O)n(C)n1", "relative growth": "inactive: 0.999"},
      {"smiles": "Cc1noc(C)c1S(=O)(=O)Nc1ccc2c(c1)CC(=O)N([C@H](C)CO)C[C@H](C)[C@@H](CN(C)C(=O)Nc1ccccc1)O2", "relative growth": "inactive: 0.989"},
      {"smiles": "COc1ccc(NC(=O)Nc2ccc3c(c2)C(=O)N([C@@H](C)CO)C[C@@H](C)[C@H](CN(C)Cc2ccc4c(c2)OCO4)OCCCC[C@@H](C)O3)cc1", "relative growth": "inactive: 1.01"},
      {"smiles": "COCC#Cc1ccc([C@H]2[C@H]3CN(C(=O)c4cccnc4)CC(=O)N3[C@H]2CO)cc1", "relative growth": "inactive: 0.998"},
      {"smiles": "O=C(O)C[C@](O)(CC(=O)[O][Bi]1[O]C(=O)C[C@@](O)(CC(=O)O)C(=O)[O]1)C(=O)O", "relative growth": "inactive: 0.881"},
      {"smiles": "CC(C)NC(=O)Nc1ccc2c(c1)C(=O)N([C@@H](C)CO)C[C@@H](C)[C@@H](CN(C)S(=O)(=O)c1cn(C)cn1)OCCCC[C@@H](C)O2", "relative growth": "inactive: 0.986"},
      {"smiles": "Cc1ccc(S(=O)(=O)N(C)C[C@H]2Oc3c(NC(=O)Nc4ccc(C(F)(F)F)cc4)cccc3C(=O)N([C@H](C)CO)C[C@@H]2C)cc1", "relative growth": "inactive: 0.864"},
      {"smiles": "CCNC(=O)C[C@@H]1C=C[C@@H](NC(=O)C2CCOCC2)[C@H](CO)O1", "relative growth": "inactive: 0.988"},
      {"smiles": "C[C@@H]1CN(C)S(=O)(=O)CCO1", "relative growth": "inactive: 1.01"},
      {"smiles": "C[C@H](CO)N1C[C@H](C)[C@H](CN(C)Cc2ccccc2)Oc2c(NC(=O)Nc3ccc(C(F)(F)F)cc3)cccc2C1=O", "relative growth": "inactive: 1.05"},
      {"smiles": "Cc1noc(C)c1NC(=O)Nc1ccc2c(c1)C(=O)N([C@@H](C)CO)C[C@H](C)[C@H](CN(C)C(=O)Nc1ccc(C(F)(F)F)cc1)O2", "relative growth": "inactive: 0.921"},
      {"smiles": "C[C@@H]1CN([C@H](C)CO)C(=O)CCCn2nncc2CO[C@H]1CN(C)C(=O)c1ccc(N2CCN(C)CC2)cc1", "relative growth": "inactive: 0.987"},
      {"smiles": "C[C@H](CO)N1C[C@H](C)[C@H](CN(C)C(=O)Cc2ccccc2)Oc2ncc(C#CC3(O)CCCC3)cc2C1=O", "relative growth": "inactive: 1.01"},
      {"smiles": "O=C(C[C@H]1CC[C@H]2[C@@H](COC[C@H](O)CN2C(=O)c2ccncc2)O1)NCc1ccc(-c2ccccc2)cc1", "relative growth": "inactive: 1.01"},
      {"smiles": "O=C1O[C@@H](c2ccccc2)[C@@H](c2ccccc2)N2[C@@H](c3ccccc3OCCO)[C@]3(C(=O)Nc4ccc(C#CC5=CCCCC5)cc43)[C@@H](C(=O)N3CCCCCCC3)[C@H]12", "relative growth": "inactive: 1.03"},
      {"smiles": "C[C@H](CO)N1C[C@H](C)[C@@H](CN(C)Cc2ccc(-c3ccccc3)cc2)Oc2c(NC(=O)CCCCCC(=O)Nc3ccccc3N)cccc2C1=O", "relative growth": "inactive: 1.03"},
      {"smiles": "C[C@@H]1CN([C@H](C)CO)C(=O)c2c(c3ccccc3n2C)-c2ccccc2CO[C@H]1CN(C)Cc1ccc(O)cc1", "relative growth": "inactive: 0.996"},
      {"smiles": "Cc1ccc(S(=O)(=O)Nc2ccc3c(c2)C(=O)N([C@@H](C)CO)C[C@@H](C)[C@H](CN(C)C(=O)Nc2cccc4ccccc24)O3)cc1", "relative growth": "inactive: 1.01"},
      {"smiles": "Cc1noc(C)c1NC(=O)N(C)C[C@H]1Oc2c(NC(=O)Nc3ccc(C(F)(F)F)cc3)cccc2C(=O)N([C@@H](C)CO)C[C@H]1C", "relative growth": "inactive: 0.984"},
      {"smiles": "Cc1noc(C)c1NC(=O)Nc1ccc2c(c1)CC(=O)N([C@H](C)CO)C[C@@H](C)[C@H](CN(C)Cc1ccc(C(F)(F)F)cc1)O2", "relative growth": "inactive: 0.98"},
      {"smiles": "CC(C)NC(=O)N(C)C[C@H]1OCCCC[C@H](C)Oc2ccc(NC(=O)C3CCCCC3)cc2C(=O)N([C@H](C)CO)C[C@@H]1C", "relative growth": "inactive: 0.999"},
      {"smiles": "C[C@@H]1CN([C@@H](C)CO)C(=O)c2cc(NC(=O)c3ccncc3)ccc2O[C@@H](C)CCCCO[C@@H]1CN(C)Cc1ccccc1", "relative growth": "inactive: 1"},
      {"smiles": "C[C@@H]1CCCCO[C@@H](CN(C)CC2CCCCC2)[C@H](C)CN([C@@H](C)CO)C(=O)c2cc(NC(=O)CCC(F)(F)F)ccc2O1", "relative growth": "inactive: 0.982"},
      {"smiles": "CC(=O)C1CCC2C3CC=C4CC(OC(=O)CCC(=O)O)CCC4(C)C3CCC12C", "note": "(centres undefined)", "relative growth": "inactive: 1.14"},
      {"smiles": "CCc1c(C)[nH]c(N2CCOCC2)nc1=O", "relative growth": "inactive: 0.986"},
      {"smiles": "COc1ccc(S(=O)(=O)N(C)C[C@H]2Oc3ccc(NC(=O)CCN4CCOCC4)cc3CC(=O)N([C@H](C)CO)C[C@@H]2C)cc1", "relative growth": "inactive: 1.02"}
    ]}
  ]
}
